# T1: CesT (purified alone) (enteropathogenic Escherichia coli (EPEC)), P21244
# T1 chain: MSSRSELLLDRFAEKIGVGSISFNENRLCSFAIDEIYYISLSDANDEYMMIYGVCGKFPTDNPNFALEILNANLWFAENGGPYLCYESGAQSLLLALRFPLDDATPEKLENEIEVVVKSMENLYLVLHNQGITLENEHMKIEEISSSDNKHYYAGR
# B1: CesT (purified alone), P21244 1-156 (natural protein)
# chain: T1 chain
# Target: T1, CesT (purified alone) (enteropathogenic …)
# Test: SEC
# Conditions: remark: other sources report otherwise
binder,measurement,value
B1,stoichiometry N,2

# Source: paper PMC6114900
